# Assay results as given in the RNAGym collection of RNA variant scans (doi:10.1101/gad.245936.114).
# Variants at the floor of the assay are shown more often than the library holds them.
# B1: tRNA (parent)
# chain: CUCUCGGUAGCCAAGUUGGUUUAAGGCGCAAGACUUUAAUUUAUCACUACGAAAUCUUGAGAUCGGGCGUUCGACUCGCCCCCGGGAGAUUUUUUCCUCGAGCAA
# Variants of: B1
# Assay: nonsense suppression (GFP-seq) (ratio to wild type); higher = more function; SUP4oc tRNA, yeast GFP reporter sort-seq
# In short: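 Each variant's nonsense suppression (GFPSEQ) is a cell-share-weighted bin median GFP/RFP relative to the unmutated parent tRNA. Yeast with genome-integrated tRNA variants from a ~3% random-mutation library, a galactose-driven GFP ochre reporter and RFP were grown in raffinose/galactose medium with 80 mg/L adenine, then sorted into GFP/RFP bins for Illumina sequencing. Variants needed ≥100 reads and ≥30 cells.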
row,Variant,nonsense suppression
1,U4C U17G A24C G26A,≤ 0.026
2,U4C U17G A30G A33G,≤ 0.026
3,U4C U20C,1.05
4,U4C U20G U21C C79A,≤ 0.026
5,U4C U21C G67A,0.0868
6,U4C U22C G86A,1.16
7,U4C U35A C64G G88C,≤ 0.026
8,U4C U35A U55A G88A,≤ 0.026
9,U4C U35G U63G C68U,≤ 0.026
10,U4C U55C G78A G86U,≤ 0.026
11,U4C U57A,0.609
12,U4C U58A G69A,≤ 0.026
13,U4C U58G,≤ 0.026
14,U4C U58G A74C,≤ 0.026
15,U4C U63C G67A,≤ 0.026
16,U4C U71A,≤ 0.026
17,U4C U71C,≤ 0.026
18,U4C U76C A89G,≤ 0.026
19,U4G A9C,0.0511
20,U4G A9C U20G U21A,≤ 0.026
21,U4G A9G C68G,≤ 0.026

row,Variant,nonsense suppression
1,U4G A9G G65C U70A,≤ 0.026
2,U4G A9U C27A U35C,≤ 0.026
3,U4G A9U G18U A23C,≤ 0.026
4,U4G A13C U35G G61A A74C C80U,≤ 0.026
5,U4G A13G G26U C27U G78C C82A,≤ 0.026
6,U4G A13U G88U,≤ 0.026
7,U4G A14C U70A,≤ 0.026
8,U4G A14G U20G,≤ 0.026
9,U4G A14G U21G G26A C56A,≤ 0.026
10,U4G A14G U71A,≤ 0.026
11,U4G A14U G26A,≤ 0.026
12,U4G A14U U16G C29A A33U G69C A74G,≤ 0.026
13,U4G A23G C68G C80A,≤ 0.026
14,U4G A23U A24C A33U G67A G84C A87G G88C,≤ 0.026
15,U4G A24C G67U,≤ 0.026
16,U4G A30C,≤ 0.026
17,U4G A31U G86A,≤ 0.026
18,U4G A33C,≤ 0.026
19,U4G A60C C68G C79U C83A,≤ 0.026
20,U4G A60G C68U,≤ 0.026
21,U4G A60U,1.12

row,Variant,nonsense suppression
1,U4G A74C,≤ 0.026
2,U4G A74C G85A G88C,≤ 0.026
3,U4G A74G,0.0287
4,U4G C5G,≤ 0.026
5,U4G C5G C64A,≤ 0.026
6,U4G C5G G26C G28U,≤ 0.026
7,U4G C5G U57A,≤ 0.026
8,U4G C5U G25A U55A G86U,≤ 0.026
9,U4G C11A A31C A54C,≤ 0.026
10,U4G C11A U55C U63G,≤ 0.026
11,U4G C11U,≤ 0.026
12,U4G C12A A23C,≤ 0.026
13,U4G C12A C81A,≤ 0.026
14,U4G C12A G15U G73C G86U,≤ 0.026
15,U4G C12A U17G G65C G66A C83A,≤ 0.026
16,U4G C12U C29U G84A,≤ 0.026
17,U4G C12U C72U,≤ 0.026
18,U4G C12U G19U C68G C77A C82A,≤ 0.026
19,U4G C12U U55G,≤ 0.026
20,U4G C27A,≤ 0.026
21,U4G C27A C29G A74G,≤ 0.026

row,Variant,nonsense suppression
1,U4G C27G C68G,≤ 0.026
2,U4G C29U C56G C77G,≤ 0.026
3,U4G C29U U71G,≤ 0.026
4,U4G C34A G69A G86C,≤ 0.026
5,U4G C34U,≤ 0.026
6,U4G C34U U55C,≤ 0.026
7,U4G C56U G88U,≤ 0.026
8,U4G C72G,0.0909
9,U4G C79G G85A,≤ 0.026
10,U4G C79U,0.173
11,U4G C80A G84C,≤ 0.026
12,U4G C81A G86A A87G,≤ 0.026
13,U4G G6A,0.0297
14,U4G G6U G59U,≤ 0.026
15,U4G G7A C34G A60G,≤ 0.026
16,U4G G7C A14G C34U C64G,≤ 0.026
17,U4G G7U C11A U58G,≤ 0.026
18,U4G G7U C56A,≤ 0.026
19,U4G G10U A14U U63A,≤ 0.026
20,U4G G10U U21G U63C G69U,≤ 0.026
21,U4G G15A U16G A23C G28C G73C G85U,≤ 0.026
